{"source": "paper PMC4336329", "about": "(PLoS ONE, 2015)", "note": "The whole screen tested about 310,000 compounds, of which about 14,000 (4.5%) showed an effect of 50% or more. Effects have a minus sign here. Some of the results follow.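 Further: peak tail current of the secondary pulse compared with the same well before compound.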"}
{"target": "human ether-à-go-go-related gene (hERG) potassium channel (human, UniProt Q12809)", "sequence (Q12809 whole entry, looked up)": "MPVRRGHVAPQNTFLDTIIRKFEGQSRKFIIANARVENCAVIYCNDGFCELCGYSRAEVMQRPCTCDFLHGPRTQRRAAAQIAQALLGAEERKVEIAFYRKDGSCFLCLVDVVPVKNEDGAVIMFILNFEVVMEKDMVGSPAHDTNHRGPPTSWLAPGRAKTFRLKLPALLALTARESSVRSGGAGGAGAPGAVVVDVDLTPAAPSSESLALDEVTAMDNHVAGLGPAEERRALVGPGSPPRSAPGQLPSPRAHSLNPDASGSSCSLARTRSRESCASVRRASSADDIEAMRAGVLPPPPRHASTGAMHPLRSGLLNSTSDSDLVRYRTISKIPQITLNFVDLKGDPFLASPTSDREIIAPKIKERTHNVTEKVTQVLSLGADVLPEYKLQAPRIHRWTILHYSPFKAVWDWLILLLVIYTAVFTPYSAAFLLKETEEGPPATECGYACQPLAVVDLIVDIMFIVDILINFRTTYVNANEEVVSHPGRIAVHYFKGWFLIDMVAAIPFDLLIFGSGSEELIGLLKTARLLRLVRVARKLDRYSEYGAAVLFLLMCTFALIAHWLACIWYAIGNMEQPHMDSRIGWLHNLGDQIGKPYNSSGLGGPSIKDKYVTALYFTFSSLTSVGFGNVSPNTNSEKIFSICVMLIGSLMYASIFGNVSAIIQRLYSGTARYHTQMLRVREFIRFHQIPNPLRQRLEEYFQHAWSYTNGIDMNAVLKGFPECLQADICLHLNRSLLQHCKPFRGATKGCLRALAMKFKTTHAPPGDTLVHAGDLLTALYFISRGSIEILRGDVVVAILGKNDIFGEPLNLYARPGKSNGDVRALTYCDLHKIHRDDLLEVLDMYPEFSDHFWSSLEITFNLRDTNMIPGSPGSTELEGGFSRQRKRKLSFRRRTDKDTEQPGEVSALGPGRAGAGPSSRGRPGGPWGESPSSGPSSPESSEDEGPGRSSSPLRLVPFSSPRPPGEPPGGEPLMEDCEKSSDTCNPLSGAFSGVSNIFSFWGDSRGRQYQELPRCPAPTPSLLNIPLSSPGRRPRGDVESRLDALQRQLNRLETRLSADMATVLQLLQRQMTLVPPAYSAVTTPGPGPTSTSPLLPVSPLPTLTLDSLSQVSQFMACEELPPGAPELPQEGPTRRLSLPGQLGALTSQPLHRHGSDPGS", "assay": "primary screen, population patch clamp on CHO cells stably expressing hERG", "units": {"hERG current change (%, negative = inhibition) at 10uM": "%"}}
{"smiles": "COc1ccc(NC(=O)Cn2cc(C(C)=O)c3ccccc32)cc1", "hERG current change (%, negative = inhibition) at 10uM": 1.65}
{"smiles": "Cl.Clc1ccc(Sc2ccccn2)cc1", "hERG current change (%, negative = inhibition) at 10uM": 5.45}
{"smiles": "O=C(CC1CCCC1)Nc1cc(S(=O)(=O)N2CCOCC2)ccc1O", "hERG current change (%, negative = inhibition) at 10uM": 4.05}
{"smiles": "Cc1ccc(C(C(=O)NC(C)(C)C)N(Cc2ccco2)C(=O)CCC(=O)Nc2ccccn2)cc1", "note": "(centres unmarked)", "hERG current change (%, negative = inhibition) at 10uM": 7.84}
{"smiles": "O=C(COC(=O)C1=COCCO1)NCc1ccc(Cl)cc1", "hERG current change (%, negative = inhibition) at 10uM": -0.77}
{"smiles": "CC1CCCN(C(=O)NC(=O)c2ccc(Cl)cc2)C1", "note": "(centres unmarked)", "hERG current change (%, negative = inhibition) at 10uM": 3.85}
{"smiles": "COc1cc(CNCCNC(=O)c2nonc2N)ccc1OCc1ccc(Cl)cc1.Cl", "hERG current change (%, negative = inhibition) at 10uM": -74.4}
{"smiles": "Cl.O=C(Nc1cccc(F)c1)[C@@H]1CCCN1", "hERG current change (%, negative = inhibition) at 10uM": 17.2}
{"smiles": "C=CCn1c(=NC(=O)c2ccc(S(=O)(=O)N3CCCC3)cc2)sc2cc(NC(C)=O)ccc21", "hERG current change (%, negative = inhibition) at 10uM": -9.96}
{"smiles": "Cc1ccccc1OCC(=O)Nc1ccc2c(c1)Cc1ccccc1-2", "hERG current change (%, negative = inhibition) at 10uM": -3.31}
{"smiles": "COc1ccccc1OCc1nc(C#N)c(NCc2ccco2)o1", "hERG current change (%, negative = inhibition) at 10uM": -6.35}
{"smiles": "COc1cc2c(cc1OC)C(C)N(C(=O)CCc1c[nH]c3ccccc13)CC2", "note": "(centres unmarked)", "hERG current change (%, negative = inhibition) at 10uM": 10.2}
{"smiles": "CS(=O)(=O)c1ccc(-c2nnc(NC(=O)c3ccco3)o2)cc1", "hERG current change (%, negative = inhibition) at 10uM": 13.9}
{"smiles": "CNC(=O)NC(=O)C(c1ccccc1)N(C)CC1COc2ccccc2O1", "note": "(centres unmarked)", "hERG current change (%, negative = inhibition) at 10uM": 10.8}
{"smiles": "COc1cc(OC)cc(C(=O)N2CCC(N3CCN(c4ccccc4OC)CC3)CC2)c1.O=C(O)C(F)(F)F", "hERG current change (%, negative = inhibition) at 10uM": -23.4}
{"smiles": "COCCNC(=O)C(c1ccncc1)N(C(=O)Cn1nnc2ccccc21)c1ccc(OC)cc1", "note": "(centres unmarked)", "hERG current change (%, negative = inhibition) at 10uM": 6.46}
{"smiles": "COc1ccccc1C(=O)Nc1c(C)cc(Br)cc1C", "hERG current change (%, negative = inhibition) at 10uM": 7.12}
{"smiles": "COc1ccc(Cc2nnc(-c3cccc(C)c3)o2)cc1OC", "hERG current change (%, negative = inhibition) at 10uM": 6.9}
{"smiles": "CCc1nnc(NC(=O)CSc2nc3ccccc3s2)s1", "hERG current change (%, negative = inhibition) at 10uM": -0.994}
{"smiles": "CC(=O)c1ccc(N2CCN(C(=O)C3CCN(S(=O)(=O)Cc4ccccc4)CC3)CC2)cc1", "hERG current change (%, negative = inhibition) at 10uM": 3.03}
{"smiles": "COc1ccc(NC(=S)N2CCC(C(=O)c3ccc(OC)cc3)CC2)cc1", "hERG current change (%, negative = inhibition) at 10uM": -45.4}
{"smiles": "O=c1cc(CN2CCN(c3cccc(Cl)c3)CC2)c2cc3c(cc2o1)CCCC3", "hERG current change (%, negative = inhibition) at 10uM": 15.8}
{"smiles": "COc1cc(NC(=O)CSc2nc(=O)n(CCN3CCOCC3)c3c2CCC3)cc(OC)c1", "hERG current change (%, negative = inhibition) at 10uM": -41.9}
{"smiles": "O=C(N/N=C\\c1ccc(S(=O)(=O)[O-])o1)c1ccc2c(c1)OCO2.[Na+]", "hERG current change (%, negative = inhibition) at 10uM": 22.9}
{"smiles": "CC1CCC2(CC1)SCC(=O)N2c1ccccc1", "note": "(centres unmarked)", "hERG current change (%, negative = inhibition) at 10uM": 0.289}
{"smiles": "CCOc1cc(S(=O)(=O)n2c(C)nc3ccccc32)ccc1F", "hERG current change (%, negative = inhibition) at 10uM": -3.78}
{"smiles": "Cc1ccc(-n2[nH]c(C)c(/C=N/Nc3ccc([N+](=O)[O-])cc3[N+](=O)[O-])c2=O)cc1C", "hERG current change (%, negative = inhibition) at 10uM": 21}
{"smiles": "N/C(=N\\OC(=O)CCn1cccc(C(F)(F)F)c1=O)c1ccc(Cl)cc1", "hERG current change (%, negative = inhibition) at 10uM": -12.7}
{"smiles": "O=c1c([N+](=O)[O-])c(N2CCCCCC2)c2ccccc2n1-c1ccccc1", "hERG current change (%, negative = inhibition) at 10uM": 19.6}
{"smiles": "COc1ccc(C(C(=O)NC2CCCC2)N(Cc2cccnc2)C(=O)Cc2cccs2)cc1OC", "note": "(centres unmarked)", "hERG current change (%, negative = inhibition) at 10uM": -1.66}
{"smiles": "Cc1cc2nc(C3CCN(Cc4nnnn4Cc4cccs4)CC3)[nH]c2cc1C", "hERG current change (%, negative = inhibition) at 10uM": -83}
{"smiles": "COc1ccccc1C(=O)NC(=S)Nc1ccc2[nH]c(=O)[nH]c2c1", "hERG current change (%, negative = inhibition) at 10uM": 26.1}
{"smiles": "Cc1ccc(/C=N/NC(=O)c2nnn(-c3nonc3N)c2CSc2ccc(Cl)cc2)cc1", "hERG current change (%, negative = inhibition) at 10uM": 15.5}
{"smiles": "Cc1nc2ccccc2c(=O)n1/N=C/C=C/c1ccccc1", "hERG current change (%, negative = inhibition) at 10uM": -0.928}
{"smiles": "Cc1ccc2nc(SCC(=O)Nc3cc(C(F)(F)F)ccc3N3CCOCC3)[nH]c2c1", "hERG current change (%, negative = inhibition) at 10uM": 7.28}
{"smiles": "CCCCC(=O)Nc1ccc2c(c1)oc1ccccc12", "hERG current change (%, negative = inhibition) at 10uM": 0.195}
{"smiles": "CCn1c(=O)c(CCC(=O)NCCN2CCOCC2)c(C)c2c(C)nn(-c3cccc(C)c3)c21", "hERG current change (%, negative = inhibition) at 10uM": -6.38}
{"smiles": "CC1CN(C(=O)CSc2nnc(CNC(=O)c3ccc(S(=O)(=O)N(C)C)cc3)o2)CC(C)O1", "note": "(centres unmarked)", "hERG current change (%, negative = inhibition) at 10uM": 21.1}
{"smiles": "COCC(=O)Nc1ccc(S(=O)(=O)N2CCCC2)cc1", "hERG current change (%, negative = inhibition) at 10uM": 19.9}
{"smiles": "N#Cc1cn(CCOC(=O)c2cccc(C(F)(F)F)c2)c(=O)[nH]c1=O", "hERG current change (%, negative = inhibition) at 10uM": 4.61}
{"smiles": "CCC(C)Cn1c(C(C)O)nc2ccccc21", "note": "(centres unmarked)", "hERG current change (%, negative = inhibition) at 10uM": 0.00748}
{"smiles": "CCC(OC(=O)CNS(=O)(=O)c1ccccc1)C(=O)c1ccccc1", "note": "(centres unmarked)", "hERG current change (%, negative = inhibition) at 10uM": 6.71}
{"smiles": "CCCC(=O)c1ccc(N2CCOCC2)c(F)c1", "hERG current change (%, negative = inhibition) at 10uM": 5.76}
{"smiles": "COc1cc(C2C3=C(Nc4ncnn42)c2ccccc2CC3)cc(OC)c1OC", "note": "(centres unmarked)", "hERG current change (%, negative = inhibition) at 10uM": -17.3}
